Measured values as given in PubChem BioAssay AID1346428 (National Center for Advancing Translational Sciences (NCATS), 2018).
The whole screen tested about 48,000 compounds, of which about 1,200 (2.5%) were called active. Another 2% or so got no clear call; they are omitted.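 How the source made its calls: active means activation of at least 60% and not above a set upper limit (about 1 call in 100 departs from these limits); inconclusive means activation of 40% to 60%, or above that upper limit; inactive means activation under 40%.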 The list shows a part of the results.

Molecular target: Probable G-protein coupled receptor 32 (Homo sapiens) (UniProt O75388)
Experiment: qHTS for Agonists of Human Resolvin D1 Receptor DRV1
Conditions: CHO-K1 GPR32 beta-arrestin PathHunter luminescence, 90 min; at 76.9 µM; hits give high values; zero percent set by DMSO-only wells
Text: Endogenous resolution of inflammation is known to be transduced through various GPCRs and their natural mediators of lipid nature. Resolvin D1 (RvD1) is one of the active players in resolution of acute inflammation through regulation of anti-inflammatory pathways; it is known to enhance phagocytosis of human macrophages, limits neutrophils infiltration, etc. […] The search for GPR32-activating small molecules with anti-inflammatory effects similar to its natural omega-3 derivative ligand in order to use them as research tools for further studies of inflammation and its resolution was the goal of this screening project. For primary screening assay, we used CHO-K1 GPR32 beta-arrestin cell line (DiscoveRx, #93-0321C2A) and the PathHunter(R) beta-Arrestin Assay (DiscoveRx) which measures recruitment of beta-arrestin to the GPR32 and generates chemiluminescent signal. These engineered cells stably transfected with GPR32 co-express GPR32-fused small 42-amino acid fragment of beta-Gal called ProLinktrade mark, and […] -tagged beta-Arrestin fusion protein. When GPR32 is activated by a ligand, it stimulates binding of beta -Arrestin to ProLink-tagged GPR32, and two parts of beta-Gal complement forming a functional enzyme. Upon substrate (PathHunter(R) Detection reagent) addition, beta-Gal hydrolyzes it and generates a chemiluminescent signal.
The cells were thawed and plated in thawing media containing F-12 HAM (Invitrogen, #11765-054), 10% FBS (Invitrogen, #10082), 1x Glutamine, and 1x Pen/Strep onto the 175-mm flask for 24 hours. Then, thawing media was replaced with Growth media which contains 800microg/mL Geneticin (Invitrogen, #10131) and 300microg/mL Hygromycin B (Invitrogen, #10687) in addition to described above. For the assay, the cells were harvested at ~80% confluent stage with Cell Dissociation buffer (Gibco, #13151), and seeded at 2,500 cells/ 3microL/well in assay media (PathHunter(R) Cell Plating Reagent, DiscoverX, #93-0563R1B) using MultiDrop Combi dispenser (Thermo Scientific, Logan, UT) onto white solid bottom tissue culture-treated 1536-well plates (Greiner # 789173-F) and allowed to attach overnight at 37 degrees C, 95% humidity, 5% CO2, . Next, 23nL/well of compound solutions in DMSO were added with a Pin Tool (Kalypsis, San Diego, CA) to the assay plates. As the basal control (EC0), 23 nL/well of DMSO was used on each plate. The cells were incubated in the presence of compounds or DMSO for 90 minutes at 37 degrees C, 5% CO2. Subsequently, 1.5microL/well of PathHunter(R) Detection Reagent prepared per the manufacturer's instructions was added to the assay plates with BioRAPTR FRDtrade mark dispenser (Beckman Coulter, San Francisco, CA) and incubated for 1 hour at ambient temperature prior to the measurement of the luminescent signal on ViewLux(R) uHTS Microplate Imager (Perkin Elmer, Waltham, MA).

UniProt O75388, sequence (O75388 whole entry, looked up): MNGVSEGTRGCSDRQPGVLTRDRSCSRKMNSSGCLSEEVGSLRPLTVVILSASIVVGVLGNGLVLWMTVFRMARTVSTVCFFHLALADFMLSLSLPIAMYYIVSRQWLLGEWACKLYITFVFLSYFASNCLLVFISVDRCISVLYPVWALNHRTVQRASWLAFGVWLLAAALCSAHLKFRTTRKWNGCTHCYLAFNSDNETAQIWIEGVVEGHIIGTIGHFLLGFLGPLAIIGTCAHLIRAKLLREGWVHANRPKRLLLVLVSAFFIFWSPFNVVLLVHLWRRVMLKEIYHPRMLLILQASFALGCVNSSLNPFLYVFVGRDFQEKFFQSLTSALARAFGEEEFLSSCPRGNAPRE

activation, inactive:
COc1ccccc1C(=O)NCCSc1c(C)[nH]c2ccccc12 2.96%, COc1ccc(N2CC(NC(=O)C3CC3)CC2=O)cc1 (configuration not stated) -8.64%, CCC(NC(=O)Nc1ccc(OC)c(OC)c1)c1c(-n2cccc2)sc2c1CCN(C)C2 (configuration not stated) -26.3%, CC(=O)c1cccc(NC(=O)[C@H](Cc2ccccc2)N2Cc3ccccc3C2=O)c1 -5.43%, CCc1ccc(NC(=O)Cn2c(=O)c(CNc3ccccc3)cc3cc(OC)c(OC)cc32)cc1 -46%, COc1ccc(CCNC(=O)c2ccc3c(c2)N=C(C)c2cc(C)ccc2S3)cc1OC -12.4%, O=c1oc2ccc3ccccc3c2cc1-c1nnc(Nc2ccc(Cl)cc2Cl)s1 0.367%, COc1cccc(NC(=O)CSc2nc(=O)n(Cc3ccccn3)c3c2CCC3)c1 0.255%, COc1ccc(-c2nc3ccccc3o2)cc1NC(=O)C(C)(C)Oc1ccc(Br)cc1 -4.74%, Cc1cccc(NC(=O)C2CCCN(S(=O)(=O)c3c(C)[nH]c(=O)[nH]c3=O)C2)c1C (configuration not stated) -3.6%, CCOC(=O)c1c(NC(=O)c2ccc(S(=O)(=O)N(CC(C)C)CC(C)C)cc2)sc2c1CCN(CC)C2 32.9%, O=C(Nc1nc(-c2ccccc2)ns1)c1ccc(Cl)cc1 4.58%, CC(C(=O)O)c1ccc2c(c1)CC(=O)c1ccccc1S2 (configuration not stated) 6.11%, CCN(CC)c1ccc(NC(=O)C2CCN(S(=O)(=O)c3ccc4c(c3)oc(=O)n4C)CC2)c(C)c1 3.94%, COc1ccc(CN(C(=O)c2cc(=O)c3ccccc3o2)C2CCS(=O)(=O)C2)cc1OC (configuration not stated) -15.3%, COc1ccccc1N1CCN(C(=O)c2ccc3c(c2)N(Cc2cc(C)ccc2C)C(=O)c2ccccc2S3(=O)=O)CC1 -11.4%, Cc1cccc(NC(=O)C(NS(=O)(=O)c2cccc3nsnc23)c2ccccc2)c1C (configuration not stated) -18.3%, Cc1ccc(NC(=O)Cn2c(=O)n(Cc3ccco3)c(=O)c3sc4ccccc4c32)c(C)c1 -3.78%, CC(C)(C)OC(=O)N1CCC(c2c(C(=O)N3CCN(c4ccccn4)CC3)cnn2-c2cccc(F)c2)CC1 -12.4%, COc1ccc(N2CCN(S(=O)(=O)c3cc(Br)cc4c3N(C(=O)C3CC3)CC4)CC2)cc1 27%, CCOC(=O)c1ccc(NS(=O)(=O)c2ccc3c(c2)CCN3C(=O)CC)cc1 -10.9%, O=C(OCC(COC(=O)c1cccnc1)(COC(=O)c1cccnc1)COC(=O)c1cccnc1)c1cccnc1 5.08%, CCOC(=O)c1c(C)c(-c2ccccc2)n(CC(=O)NCc2ccccc2)c1C 28.3%, COc1cc2c(=O)c(S(=O)(=O)c3ccc(C(C)C)cc3)cn(Cc3ccccc3C)c2cc1OC 8.61%, Cc1ccc(C(=O)NCC(c2ccco2)S(=O)(=O)c2ccccc2)cc1C (configuration not stated) -3.29%, CSc1nc(N)c2ncn([C@@H]3O[C@H](COP(=O)(O)OP(=O)(O)O)C(O)[C@H]3O)c2n1 (some centres not stated) 1.78%, O=C(Nc1cccc(C(F)(F)F)c1)c1cc2nc(-c3ccco3)cc(C(F)(F)Cl)n2n1 37.4%, Cc1cc(C)c(Cn2c(=O)n(Cc3ccccc3)c(=O)c3c(C)c(C)sc32)c(C)c1 9.84%, O=C(CSc1nccn1Cc1ccccc1)Nc1nc2ccccc2s1 -10.3%, COc1ccc(OC)c(NC(=O)COCc2cc(-c3ccco3)on2)c1 -18%, CCOC(=O)c1cc(-c2ccccc2)n(CCC(=O)NCCc2ccc(C)cc2)c1C -28%, COc1ccc(-n2nc(C(=O)N3CCCCC3)c3c4ccccc4n(C)c3c2=O)cc1Cl -9.35%, Cc1ccc(S(=O)(=O)c2nnn(CC(=O)Nc3ccccc3C)c2N)cc1 14.5%, CCCCNC(=O)Nc1ccc2c(c1)N(C)C(=O)c1ccccc1S2 -9.38%, CCN(CC)C(=O)CN1C(=O)COc2ccc(S(=O)(=O)N3CCOCC3)cc21 -19.6%, CCc1ccc(NC(=O)N2CCN(Cc3nc4ccc(C)cc4o3)CC2)cc1 0.249%, O=C(CSc1nc2c([nH]c3ccccc32)c(=O)n1-c1ccc(Cl)cc1)NC1CCCCC1 -16.7%, CC(=O)[C@H]1CC[C@H]2[C@@H]3CC=C4C[C@@H](O)CC[C@]4(C)[C@H]3CC[C@]12C 28.5%, COc1ccc(NC(=O)Cn2nnc(C(=O)NCc3ccco3)c2N)c(OC)c1 17.4%, COc1ccccc1NC(=O)c1c(C)cc(C)nc1SCC(=O)Nc1ccc(C)cc1 -23.9%, Cc1cc(Nc2cccc(Br)c2)n2c(nc3ccccc32)c1C#N 19.4%, Cc1ccc(N2CCN(C(=O)c3cn(C)c4ccc(S(=O)(=O)N5CCCC5)cc4c3=O)CC2C)cc1 (configuration not stated) -16.2%, CCOc1ccc(NC(=O)CN2C(=O)c3ccccc3Sc3ccc(C(=O)OC)cc32)cc1 -3.35%, COc1cc(NC(=O)CSc2nc(-c3ccccc3)no2)cc(OC)c1 14.6%, Cc1cc(C)cc(-n2c(SCC(=O)NCc3ccc(F)cc3)nc3c([nH]c4ccccc43)c2=O)c1 18.5%, Cc1ccc2c(c1)c(=O)c1ccccc1n2CCCC(=O)Nc1ccc(Cl)c(Cl)c1 -1.01%, Cc1cccc(C)c1NC(=O)C(=O)NCC(c1cccnc1)N1CCc2ccccc21 (configuration not stated) -23%, COC(=O)c1sc(-c2ccccc2)cc1NC(=O)c1cccc(Cl)c1 4.12%, COc1cccc(NC(=O)CN2C(=O)CC(c3ccco3)Sc3ccccc32)c1 (configuration not stated) -6.18%, CN(C)c1ccc(C(=C2C=CC(=[N+](C)C)C=C2)c2ccc(N(C)C)cc2)cc1 -78.5%, COc1cc(NC(=O)c2cc3c(=O)n(Cc4ccco4)ccc3nc2C)cc(OC)c1OC -4.77%

activation, active:
CC(=O)Nc1ccc(S(=O)(=O)NCC2CCC(C(=O)NCc3ccccc3)CC2)cc1 (configuration not stated) 98.8%
